Among the data in PMC5915145, “CNPY2 inhibits MYLIP-mediated AR protein degradation in prostate cancer cells” (Oncotarget, 2018) are binding values, retold here.

Protein sequences, listed by entry. Tags and fused reporters are not part of them. Lines headed by an entry give the natural chain unless they say otherwise; changes in a name come on top.
UniProt P51668: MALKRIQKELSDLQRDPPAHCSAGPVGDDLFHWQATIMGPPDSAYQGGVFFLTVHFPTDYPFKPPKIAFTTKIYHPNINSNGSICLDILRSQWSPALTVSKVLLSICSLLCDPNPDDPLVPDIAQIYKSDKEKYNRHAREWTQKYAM
UniProt P10275: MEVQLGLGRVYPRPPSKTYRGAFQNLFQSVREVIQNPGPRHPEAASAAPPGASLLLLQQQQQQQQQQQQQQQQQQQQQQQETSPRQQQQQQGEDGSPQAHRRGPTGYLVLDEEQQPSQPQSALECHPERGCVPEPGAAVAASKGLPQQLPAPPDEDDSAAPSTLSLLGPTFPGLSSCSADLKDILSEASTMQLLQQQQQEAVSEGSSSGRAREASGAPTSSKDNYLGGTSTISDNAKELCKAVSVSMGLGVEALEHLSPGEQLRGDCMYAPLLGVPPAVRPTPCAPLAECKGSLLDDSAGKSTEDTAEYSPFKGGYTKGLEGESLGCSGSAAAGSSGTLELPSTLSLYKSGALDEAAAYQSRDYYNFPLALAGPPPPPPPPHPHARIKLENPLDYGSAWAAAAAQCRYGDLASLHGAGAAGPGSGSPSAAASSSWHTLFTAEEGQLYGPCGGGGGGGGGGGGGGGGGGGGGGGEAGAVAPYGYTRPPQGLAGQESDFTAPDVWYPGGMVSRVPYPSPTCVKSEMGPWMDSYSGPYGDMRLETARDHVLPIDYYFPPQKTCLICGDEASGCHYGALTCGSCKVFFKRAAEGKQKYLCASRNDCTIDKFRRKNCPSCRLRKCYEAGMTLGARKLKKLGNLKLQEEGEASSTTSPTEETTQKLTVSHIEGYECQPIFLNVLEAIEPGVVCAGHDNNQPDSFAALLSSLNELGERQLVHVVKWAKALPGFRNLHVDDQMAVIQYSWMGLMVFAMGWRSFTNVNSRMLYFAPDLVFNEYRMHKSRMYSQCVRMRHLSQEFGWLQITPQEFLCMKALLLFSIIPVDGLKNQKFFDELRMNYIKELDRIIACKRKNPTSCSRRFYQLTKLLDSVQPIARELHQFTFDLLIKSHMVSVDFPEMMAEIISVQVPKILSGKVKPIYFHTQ

Like-named read-outs stand apart in the source and are kept apart here. Results are given in words; binding and its absence hold for the method and conditions named. For some assays here: In cells and extracts the contact can be indirect. Some binding calls cover weakened binding; strength is not graded here. Sequences can lack the tags named with a protein.

The target in test [1] is T1, His tag-fused MYLIP expressed in 293T cells (UniProt Q8WY64).
T1 sequence: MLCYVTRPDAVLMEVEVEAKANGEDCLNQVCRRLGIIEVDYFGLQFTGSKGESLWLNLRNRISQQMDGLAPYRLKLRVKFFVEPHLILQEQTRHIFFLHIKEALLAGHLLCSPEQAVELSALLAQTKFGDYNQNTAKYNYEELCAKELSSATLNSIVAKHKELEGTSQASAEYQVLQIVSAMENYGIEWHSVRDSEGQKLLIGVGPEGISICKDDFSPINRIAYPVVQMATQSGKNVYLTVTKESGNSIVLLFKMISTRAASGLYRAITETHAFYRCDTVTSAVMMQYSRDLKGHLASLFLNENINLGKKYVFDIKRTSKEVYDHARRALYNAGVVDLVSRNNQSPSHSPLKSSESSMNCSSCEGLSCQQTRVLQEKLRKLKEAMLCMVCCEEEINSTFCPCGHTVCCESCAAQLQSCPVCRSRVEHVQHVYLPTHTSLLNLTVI
Briefly: co-IP; 293T cells transfected with expression plasmids for 24 h; whole cell extracts incubated with anti-His beads (Dynabeads His-Tag Isolation and Pulldown) at 4 C for 2 h; bound proteins detected by immunoblotting (Figures 2C and 3E). On the technique in general: A western blot detects proteins with antibodies after separation by electrophoresis.

The target of test [2] is T2, recombinant GST-fused RING domain of MYLIP (344-445 a.a.) (UniProt Q8WY64).
T2 sequence: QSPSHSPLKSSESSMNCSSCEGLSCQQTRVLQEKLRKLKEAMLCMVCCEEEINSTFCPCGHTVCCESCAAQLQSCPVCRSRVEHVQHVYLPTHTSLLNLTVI
The experiment in a line: pull-down; GST-RING (8 ug) on Glutathione Sepharose beads with recombinant UBE2D-His (5 ug) or immunoprecipitated FLAG-CNPY2 (5 or 15 ug), 4 C, 30 min; 50 mM Tris-HCl pH 7.5, 150 mM NaCl, 5 mM EDTA, 0.5% NP40; immunoblotting; both purified.

In test [3] the target is T1, His tag-fused MYLIP expressed in 293T cells. Briefly: co-IP; 293T cells transfected with expression plasmids for 24 h; whole cell extracts incubated with anti-His beads (Dynabeads His-Tag Isolation and Pulldown) at 4 C for 2 h; bound proteins detected by immunoblotting (Figures 2C and 3E). This is another data set of the same source.
In test [4] the target is UBE2D1-His expressed in 293T cells (UniProt P51668). The test is described as above.

For “FLAG tag-fused AR (AF-1, 1-673 a.a.) (from UniProt P10275 1-673) (domain or fragment)”, the binding result in test [1] is “no binding”.
Same read-out and setting: the same measure for “FLAG tag-fused AR (AF-2, 555-920 a.a.) (from UniProt P10275 555-920) (domain or fragment)”: “binds”.

B1: FLAG-CNPY2 (Canopy FGF signaling regulator 2) (protein, UniProt Q9Y2B0 21-182)
chain: RRSQDLHCGACRALVDELEWEIAQVDPKKTIQMGSFRINPDGSQSVVEVPYARSEAHLTELLEEICDRMKEYGEQIDPSTHRKNYVRVVGRNGESSELDLQGIRIDSDISGTLKFACESIVEEYEDELIEFFSREADNVKDKLCSKRTDLCDHALHISHDEL
On to B1, for which the binding result in test [2] is “binds weakly”; in test [3], “binds weakly”; in test [4], “binds”.
